Reference: PMC6919601, “Identification of Plasmodium dipeptidyl aminopeptidase allosteric inhibitors by high throughput screening” (PLoS ONE, 2019)
The campaign covered roughly 110,000 compounds. About 230 (0.21%) showed an effect of 50% or more. The list shows a part of the results.

target: DPAP1 (Plasmodium falciparum, UniProt Q8IIJ9); assay: primary screen, percent inhibition; read by cleavage of a fluorogenic dipeptide substrate; higher = more effect of the substance; parameters: species or system P. falciparum D10 trophozoite lysates; single well
Sequence (Q8IIJ9 whole entry, looked up): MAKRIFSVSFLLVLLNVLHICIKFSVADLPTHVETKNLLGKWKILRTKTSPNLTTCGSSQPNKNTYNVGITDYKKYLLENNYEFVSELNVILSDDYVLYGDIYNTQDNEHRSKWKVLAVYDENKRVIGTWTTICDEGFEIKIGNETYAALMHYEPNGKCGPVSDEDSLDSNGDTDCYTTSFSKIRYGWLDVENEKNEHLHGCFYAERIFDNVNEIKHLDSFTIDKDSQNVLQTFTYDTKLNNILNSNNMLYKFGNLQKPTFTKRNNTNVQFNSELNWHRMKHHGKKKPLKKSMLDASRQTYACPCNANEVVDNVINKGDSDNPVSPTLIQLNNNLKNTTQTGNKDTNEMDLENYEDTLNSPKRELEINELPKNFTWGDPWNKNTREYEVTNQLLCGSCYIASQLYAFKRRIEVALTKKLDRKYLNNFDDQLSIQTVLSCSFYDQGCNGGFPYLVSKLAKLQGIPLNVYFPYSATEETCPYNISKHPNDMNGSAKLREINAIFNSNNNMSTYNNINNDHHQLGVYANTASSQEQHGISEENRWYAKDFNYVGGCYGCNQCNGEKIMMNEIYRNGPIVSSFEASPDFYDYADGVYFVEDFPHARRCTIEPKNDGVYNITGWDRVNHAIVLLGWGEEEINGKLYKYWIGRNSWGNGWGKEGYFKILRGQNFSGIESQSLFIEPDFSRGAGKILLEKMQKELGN
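Note: 30 min substrate incubation versus DMSO and 10 µM JCP410 controls.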

Compared with `Clc1nc2ccccc2nc1NCc1ccco1`, `Cc1cc(C(=O)NCc2ccco2)on1` is lower in “% Inhibition @ 10 uM” value: 8.36% for the first, -5.25% for the second.

Going from `Cc1nn(CCCC(=O)NCc2ccccc2Cl)c(=O)c2c1sc1ccccc12` to `CCn1cc(CNC(=O)c2cc(-c3ccccc3OC)nc3ccccc23)c(C)n1`, the “% Inhibition @ 10 uM” value falls from -4.93% to -9.75%.

Compared with `CC1=NC2(CCCCC2)Cc2ccccc21`, `CCOC(=O)C(=O)N1CCc2ccccc2C1` is lower in “% Inhibition @ 10 uM” value: 4% for the first, -5.7% for the second.

Going from `Cc1cccc(NCC(O)Cn2c(C)c(C)c3ccccc32)c1` (stereo not shown) to `Cc1ccccc1OCC(=O)Nc1cccc(C)c1C`, the “% Inhibition @ 10 uM” value falls from 0.389% to -0.872%.

Going from `N#CCNC(=O)[C@@H]1CCCC[C@@H]1CSC1=NCCS1` to `O=C(NC1CCCC1)C1COc2ccccc2O1` (stereo not shown), the “% Inhibition @ 10 uM” value rises from -3.04% to -1.59%.

Compared with `Cc1ccc(C(=O)Nc2ccc(C)c(C)c2)o1`, `Cc1ccc(NC(=O)c2ccccc2C(=O)O)cc1F` is lower in “% Inhibition @ 10 uM” value: 4.05% for the first, -7.34% for the second.

Going from `COc1ccc(O)c(/C=N/c2sc3c(c2C#N)CCCC3)c1` to `NC(=O)c1c(NC(=O)c2ccc(Cl)cc2)sc2c1CCCCC2`, the “% Inhibition @ 10 uM” value rises from 1.12% to 15.7%.

Compared with `Cc1scc(CN2CCN(c3ccccn3)CC2)c1C`, `Fc1ccccc1N1CCN(Cc2cccc(Br)c2)CC1` is higher in “% Inhibition @ 10 uM” value: -6.98% for the first, 1.2% for the second.

Compared with `COC(=O)c1ccc(CSc2ccccc2)cc1`, `O=C(Nc1ccc2ccccc2c1)c1cccc(Br)c1` is higher in “% Inhibition @ 10 uM” value: -1.68% for the first, 1.91% for the second.

Compared with `COc1ccc(CN2CCC(Cc3ccccc3)CC2)cc1O`, `COc1ccc(NC(=S)N2CCN(Cc3ccccc3)CC2)cc1` is higher in “% Inhibition @ 10 uM” value: 0.847% for the first, 4.26% for the second.

First: CC1CCCC(NC(=O)C2CCN(S(=O)(=O)c3c[nH]cn3)CC2)C1C (stereo not shown)
Second: CCN(CC)S(=O)(=O)N1CCC(C(=O)NCc2ccc3c(c2)OCO3)CC1
The “% Inhibition @ 10 uM” value of the first is higher: -0.499% for the first, -4.06% for the second.

First: COc1ccc(/C=C2\C(=O)C(=O)c3ccccc32)cc1
Second: Cc1cccc(NC(=O)CN2C(=O)N/C(=C/c3ccc(O)cc3)C2=O)c1
The “% Inhibition @ 10 uM” value of the first is higher: 7.99% for the first, -7.61% for the second.

Going from `CCN(c1ccccc1C)S(=O)(=O)c1cc(Cl)ccc1Cl` to `Cc1ccc(S(=O)(=O)N(CC(=O)N2CCC(C)CC2)c2ccc(C)cc2C)cc1`, the “% Inhibition @ 10 uM” value rises from 4.03% to 6.01%.

Going from `CCOc1ccc(C(=O)N2CCc3cc(OC)c(OC)cc3C2c2ccccc2)cc1` (stereo not shown) to `COc1ccc(C2Nc3ccccc3N=C3CC(c4ccc(OC)c(OC)c4)CC(O)=C32)cc1O` (stereo not shown), the “% Inhibition @ 10 uM” value falls from 3.59% to 2.38%.

Going from `CC(=O)C1=C(C)NC(SCC(=O)Nc2nc3ccccc3s2)=C(C#N)C1c1cccnc1` (stereo not shown) to `COc1ccc(C2C(C#N)=C(N)Oc3[nH]nc(C)c32)cc1CSc1nc2ccccc2o1` (stereo not shown), the “% Inhibition @ 10 uM” value rises from 4.08% to 12.5%.

Compared with `COc1cc(C(=O)NC(C)C(c2cccs2)N2CCOCC2)cc(OC)c1OC` (stereo not shown), `O=C(Cn1c2ccccc2c2cnnc(O)c21)N1CCOCC1` is lower in “% Inhibition @ 10 uM” value: 2.34% for the first, -3.79% for the second.

Going from `Oc1ccc(SCCCCN2CCOCC2)cc1` to `CCOC(=O)N1CCN(Cc2cc(F)ccc2F)CC1`, the “% Inhibition @ 10 uM” value falls from 5.66% to -1.41%.

Going from `C=CCn1c(Oc2ccccc2)nc2c1c(=O)n(C)c(=O)n2C` to `COC(=O)/C(C#N)=C/c1c(Oc2ccccc2)nc2ccccn2c1=O`, the “% Inhibition @ 10 uM” value falls from -1.92% to -5.11%.

Compared with `Cc1ccc(-c2c(N3CCN(C4CCCCC4)CC3)c(=O)c2=O)cc1C`, `O=C(O)c1cccc(NC(=O)c2ccc3c(c2)C(=O)N(C2CCCCC2)C3=O)c1` is higher in “% Inhibition @ 10 uM” value: 3.04% for the first, 21.1% for the second.

Compared with `CC1CN(C(=O)c2cccc(F)c2)C(C)CN1C(=O)c1cccc(F)c1` (stereo not shown), `COC(=O)c1c(C)nn(-c2ccccc2)c1-n1cccc1` is lower in “% Inhibition @ 10 uM” value: 0.795% for the first, -5.37% for the second.

First: CCOc1cc(/C=C(\C#N)C(=O)NCc2cccnc2)ccc1O
Second: CCOc1ccc(CC(=O)Nc2c(C(C)=O)oc3ccc(Cl)cc23)cc1OCC
The “% Inhibition @ 10 uM” value of the first is higher: 14.8% for the first, -0.413% for the second.

First: O=C1C=CC(=O)N1c1cc([N+](=O)[O-])ccc1F
Second: CCOC(=O)N1CCN(c2c(NCCN(C)Cc3ccccc3)c(=O)c2=O)CC1
The “% Inhibition @ 10 uM” value of the first is lower: -4.04% for the first, -3.21% for the second.

Going from `CC(C)(C)c1ccc(-c2nc(N3CCCC3)c3ccccc3n2)cc1` to `Cc1c(C)n(C)c2ccc(C(=O)NCc3ccc(OC(C)C)cc3)cc12`, the “% Inhibition @ 10 uM” value rises from -1.25% to 4.44%.

Going from `C=CCNC(=O)c1c([N+](=O)[O-])cnn1C` to `CSc1ncc(Cl)c(C(=O)Nc2sc3c(c2C(=O)NCc2ccco2)CCCC3)n1`, the “% Inhibition @ 10 uM” value falls from 0.989% to 0.569%.

Compared with `O=C(Nc1c2c(nc3c1CCC3)CCCC2)C1CCCCC1`, `CCN1CCN(C2=NC(=O)/C(=C/c3ccc4c(c3)OCO4)S2)CC1` is higher in “% Inhibition @ 10 uM” value: -6.44% for the first, -3.74% for the second.

First: CCOC(=O)CC(N)c1ccc(Cl)cc1 (stereo not shown)
Second: CCOc1ccc(CCNCc2c(C(=O)O)n(Cc3ccc(C)cc3)c3cc(C)ccc23)cc1
The “% Inhibition @ 10 uM” value of the first is lower: -5.44% for the first, 5.43% for the second.
